Assay results from patent US10654925B2, “Anti-marinobufagenin antibodies and uses thereof” (priority 2018, dated 2020).

How the values were obtained:
[1] = ELISA avidity estimate on MBG-KLH; type: binding; conditions: wells coated with 2 μg/ml MBG-KLH; IgG
Description: (§1) The avidity of anti-MBG antibodies for MBG was estimated in an ELISA. Wells of a microtiter plate were coated with 2 μg/ml of either MBG-bovine serum albumin (BSA) or MBG-keyhole limpet hemocyanin (KLH). The wells were then blocked with 1% BSA. A test IgG antibody at varying concentrations (typically from about 0.0001 nM to about 25 nM) was added to the wells. The test IgG bound to immobilized MBG was detected with an anti-human Fc, horseradish peroxidase (HRP)-conjugated secondary antibody (Jackson ImmunoResearch). After washing of the wells, an appropriate HRP reagent (e.g., TMB ultra, Thermo Fisher) was added to the wells. Optical density (OD) at 450 nm was measured by a microplate reader. The concentration of test antibody at the midpoint of the binding curve is an estimate of avidity for MBG.

[2] = test system: PKC-δ in the nucleus of primary rat cardiac fibroblasts; assay: Inhibition of MBG-induced PKC-δ nuclear translocation (Western blot); conditions: MBG 2 nM; nuclei isolated 30 min later; FIG. 2a
[3] = ELISA avidity estimate on MBG-BSA; type: binding; conditions: wells coated with 2 μg/ml MBG-BSA; IgG
Description: as §1

[4] = Competitive ELISA, relative CTS specificity, free MBG as competitor; type: binding; conditions: competition with immobilized MBG-BSA; normalized to MBG = 100%
Description: The specificity (relative affinity) of anti-MBG antibodies for MBG relative to various cardiotonic steroids (CTSs) was determined in a competitive ELISA. Each anti-MBG antibody was tested for its binding to immobilized MBG in the presence of free MBG, resibufogenin (RBG), cinobufagin (CINO), ouabain (OUB) or digoxin (DIG) as a competitor. A constant amount of an anti-MBG antibody (typically 1-5 μg/mL) and varying concentrations of each CTS (from 10^−12M to 10^−5M) were pre-incubated before being added to the MBG-BSA-coated wells. After washing of the wells, an anti-human Fc, HRP-conjugated secondary antibody (at 1:5000 dilution) was added to the wells and incubated at 37° C. for 1 hr. After washing of the wells, an appropriate HRP reagent (e.g., TMB ultra, Thermo Fisher) was added to the wells. OD at 450 nm was measured by a microplate reader. MBG at 10 μM was assumed to be 100% competed, and MBG at 1 pM was assumed to be 0% competed. The data was plotted as a titration of antibody-antigen binding relative to free CTS concentration in the competition reaction to determine the free CTS concentration (μM) giving 50% maximal binding of antibody to immobilized MBG. The relative specificity of an antibody for a CTS was normalized to MBG=100%.

B1: 240/241: human anti-MBG antibody, VH SEQ ID NO: 47, VL SEQ ID NO: 48 (antibody, listed as Homo sapiens, V domains shown)
VH: QVQLQESGPGLVKPSETLSLTCTVSGGSISSSSYYWGWIRQPPGKGLEWIGSIYYSGSTYYNPSLKSRVTISVDTSKNQFSLKLSSVTAADTAVYYCARLRYSSGWYADPWGQGTLVTVSS
VL: LPVLTQPPSASGTPGQRVTISCSGSSSNIGSNIVNWYQQLPGTAPKLLIYNNNQRPSGVPDRFSGSKSGASASLAISGLQSEDEADYYCVAWDGSLSGVVFGGGTKLTVL
[1]
  Estimated avidity (KA) (antibody concentration at 50% maximal binding to antigen, or EC50), Antigen 2 (MBG-KLH): 0.30 nM
[2]
  amount of PKC-δ in the nucleus, MBG plus antibody: to a lesser extent
[3]
  Estimated avidity (KA) (antibody concentration at 50% maximal binding to antigen, or EC50), Antigen 1 (MBG-BSA): 0.22 nM
[4]
  Rel. CTS Specificity as % of MBG Binding: MBG: 100%
